Results on 39 compounds are retold here after article PMC12040169 (PLOS Biology, 2025).

The other results are listed elsewhere or left out.

In this test the test system is T1, C. trachomatis L2/434/Bu expressing GFP (CTL2-GFP).
T1 construct: L2/434/Bu GFP intracellular growth in HeLa cells
On the set-up: species or system HeLa; C. trachomatis total inclusion area by high-content imaging, normalised to DMSO. The following applies: total inclusion area; 28.5 h, 10 µM; inhibitor. Put shortly: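 Host cell viability was gauged from Hoechst-stained nuclei counts, while chlamydial growth was taken from total inclusion area and inclusion number per well. Cells were fixed and imaged by high-content microscopy once bulk GFP and resorufin fluorescence had been measured.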
Regarding `COc1cc(/C=C2/S/C(=N\c3ccccc3)NC2=O)ccc1OCc1ccccc1[N+](=O)[O-]` [CBK262165], the “% of control remaining” value worked out at 95.6626.

Regarding `O=C(NC1CCCC1)c1ccc(Cl)cc1Cl` [CBK002108], the “% of control remaining” value is listed as 66.619.

As to `CC(=O)Nc1cccc(Oc2nccnc2-c2ccc(C)cc2C)c1` [CBK106986], the “% of control remaining” value stood at 21.9492.

As for `Oc1ccc(C2N=C(c3ccccc3)N=C(c3ccccc3)N2)cc1` (stereo not drawn) [CBK018755], the “% of control remaining” value is recorded as 100.601.

For the compound `O=C(Cn1cccn1)NC(Cc1cccs1)c1nccs1` (stereo not drawn) [CBK285136], the “% of control remaining” value is listed as 103.425.

As to `Clc1ccc(-c2cc(NC3CCCCC3)ncn2)cc1` [CBK090902], the “% of control remaining” value is 130.205.

Consider `Cc1c(C(=O)N2CCCCC2CN2CCOCC2)[nH]c2c(F)cccc12` (stereo not drawn) [CBK306751], for which the “% of control remaining” value turned out to be 89.8426.

For `O=C(NCC1CCCO1)c1ccc(NC(=O)C2CC=CCC2C(=O)O)cc1` (stereo not drawn) [CBK266335], the “% of control remaining” value came to 135.38.

Consider `O=C(O)C(Cc1ccccc1)N1C(=O)/C(=C/C(Cl)=C/c2ccc([N+](=O)[O-])cc2)SC1=S` (stereo not drawn) [CBK263523], for which the “% of control remaining” value stood at 99.4282.

As to `c1csc(CCN2CCC3(C2)NCCc2c3[nH]c3ccccc23)c1` (stereo not drawn) [CBK040196], the “% of control remaining” value turned out to be 87.746.

For `O=C1COc2ccccc2CCCC[C@@H]2CNCC[C@H]2N1` [CBK292038], the “% of control remaining” value is recorded as 76.2645.

In the case of `NS(=O)(=O)c1ccc(CCNC(=O)c2ccc([N+](=O)[O-])cc2)cc1` [CBK263773], the “% of control remaining” value was found to be 101.568.

Consider `Cc1ccc2nc(NC(=O)C3COc4ccccc4O3)sc2c1` (stereo not drawn) [CBK287366], for which the “% of control remaining” value was 105.562.

In the case of `O=[N+]([O-])c1ccc(Oc2ccccc2)nc1` [CBK002726], the “% of control remaining” value is given as 103.547.

`COc1ccc(N(C(C)C(=O)NN=C2CCN(C)CC2)S(C)(=O)=O)cc1` (stereo not drawn) [CBK262390]: the “% of control remaining” value is given as 110.572.

Consider `CCCCNC(=O)c1ccc2nc(C)c(N(C)CC3CCCCC3)n2c1` [CBK145913], for which the “% of control remaining” value is on record as 75.2813.

`COc1ccc2c(c1)C(O)CC1(CCN(CC(O)c3ccc(-c4ccccc4)cc3)CC1)O2` (stereo not drawn) [CBK286398]: the “% of control remaining” value is 93.9106.

`Cc1ccccc1-n1ncc2c(N3CCCC3)ncnc21` [CBK287648]: the “% of control remaining” value amounted to 103.314.

As for `CN(C)CC(C)(C)CNC(=O)c1cc(-c2ccc(C(=O)N3CCOCC3)cc2)cnc1N` [CBK158574], the “% of control remaining” value was determined as 103.186.

As to `N#CCCCN1CCN(c2nccnc2OCc2cccnc2)CC1` [CBK083144], the “% of control remaining” value worked out at 71.7962.

Regarding `Nc1c(-c2ccc3c(c2)CCO3)cnc2ncccc12` [CBK083678], the “% of control remaining” value is 83.692.

For `CC(C)(C)c1nnc([C@H]2CCN(C(=O)CCC(=O)O)C2)o1` [CBK289406], the “% of control remaining” value was found to be 99.0064.

On to `COCOc1ccc(-c2nc(-c3cccc(NS(C)(=O)=O)c3)cnc2N)cc1` [CBK063985], for which the “% of control remaining” value is 97.4839.

Regarding `c1ccc(CCN2CCC(Oc3nccnc3OCCN3CCOCC3)CC2)nc1` [CBK082944], the “% of control remaining” value turned out to be 91.1401.

On to `Cc1c(NS(=O)(=O)c2cc(C(=O)O)c(Cl)cc2Cl)c(=O)n(-c2ccccc2)n1C` [CBK296123], for which the “% of control remaining” value was determined as 89.5117.

Consider `CN1CC[C@@]2(c3cc(F)cc(F)c3)CCC(=O)CC12` (stereo partly drawn) [CBK002500], for which the “% of control remaining” value is 58.2196.

In the case of `C=CCOc1cccn2c(N(C=O)Cc3ccccc3)c(CC)nc12` [CBK147827], the “% of control remaining” value is recorded as 83.2151.

Consider `O=C1CCC(=O)N1CCOc1nccnc1N1CCN(Cc2ccccc2F)CC1` [CBK084289], for which the “% of control remaining” value stood at 91.4239.

With `CC(C)(C)c1cc(/C=N/Nc2nc3ccccc3[nH]2)cc(C(C)(C)C)c1O` [CBK262247], the “% of control remaining” value turned out to be 27.2194.

Consider `Cc1ccc(NC(=O)c2ccc3c(c2)C(=O)N(c2cccc(N4C(=O)c5ccc(C(=O)Nc6ccc(C)cc6)cc5C4=O)n2)C3=O)cc1` [CBK261198], for which the “% of control remaining” value stood at 93.357.

Turning to `CN1CCC(=NNC(=O)c2ccc(CN(c3ccccc3)S(C)(=O)=O)cc2)CC1` [CBK262728], the “% of control remaining” value is listed as 85.2392.

Consider `CCn1ncc(CN2CCCC(c3cc4cccnc4[nH]3)C2)c1C` (stereo not drawn) [CBK284700], for which the “% of control remaining” value stood at 101.365.

Turning to `Cc1cccc(C2CCCN(C(=O)Nc3cnn(C)c3)C2)c1` (stereo not drawn) [CBK306961], the “% of control remaining” value was found to be 85.5695.

`Cc1ccc(C(=O)N2CCn3c2nc2ccccc23)cc1` [CBK288204]: the “% of control remaining” value came to 131.931.

On to `COc1ccc(C2=NNC(c3ccc(C(=O)O)cc3)C2)cc1` (stereo not drawn) [CBK287167], for which the “% of control remaining” value was found to be 115.486.

As to `CC(C)c1ccc(/C=C/C(=O)N2CCN(C3CCN(C)CC3)CC2)cc1` [CBK149094], the “% of control remaining” value is 80.0974.

Take `Nc1ncc(CCCN2CCOCC2)c(N)n1` [CBK025981]: the “% of control remaining” value was 68.9026.

Turning to `O=c1n(CC2CCCCC2)c2ccccc2n1S(=O)(=O)CCc1cccc2ccccc12` [CBK106525], the “% of control remaining” value is 88.1594.

As to `CN(C)CCNC(=O)c1cccc(-c2cnc3[nH]c(=O)n(Cc4ccc(S(C)(=O)=O)cc4)c3n2)c1` [CBK065069], the “% of control remaining” value turned out to be 125.385.
